# In PMC9911399, “Two distinct binding modes provide the RNA-binding protein RbFox with extraordinary sequence specificity”:
# Numbering of substitutions follows the chain as printed; changes in the protein carry UniProt numbers. Some of the results follow.
# T1: RBFOX1 RRM RbFoxmut (Fox-RRM*) (Homo sapiens, UniProt Q9NWB1 109-208, R118D;E147R;N151S;E152T)
# T1 sequence: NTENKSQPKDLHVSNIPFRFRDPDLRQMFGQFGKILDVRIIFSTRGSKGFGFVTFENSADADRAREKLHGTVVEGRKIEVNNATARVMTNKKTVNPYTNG
# B1: UUACCUG (DNA:RNA)
# RNA: GGGAGACCGGAAUUCAGAUUGUCCUUACCUGUUAAAUCCCGUCGUAGCCACCA
# DNA 1: CAATCTGAATTCCGGTCTCCC
# DNA 2: TGGTGGCTACGACGGGATT
# B2: AAACAUC (DNA:RNA)
# RNA: B1 RNA with U25A, U26A, C29A, G31C
# DNA 1: CAATCTGAATTCCGGTCTCCC
# DNA 2: TGGTGGCTACGACGGGATT
# B3: UUGAUGG (DNA:RNA)
# RNA: B1 RNA with A27G, C28A, C29U, U30G
# DNA 1: CAATCTGAATTCCGGTCTCCC
# DNA 2: TGGTGGCTACGACGGGATT
# B4: CGCUUGC (DNA:RNA)
# RNA: GGGAGACCGGAAUUCAGAUUGUCCCGCUUGCUUAAAUCCCGUCGUAGCCACCA
# DNA 1: CAATCTGAATTCCGGTCTCCC
# DNA 2: TGGTGGCTACGACGGGATT
# B5: ACGAAUG (DNA:RNA)
# RNA: B1 RNA with U25A, U26C, A27G, C28A, C29A
# DNA 1: CAATCTGAATTCCGGTCTCCC
# DNA 2: TGGTGGCTACGACGGGATT
# B6: GCGCGAU (DNA:RNA)
# RNA: B1 RNA with U25G, U26C, A27G, C29G, U30A, G31U
# DNA 1: CAATCTGAATTCCGGTCTCCC
# DNA 2: TGGTGGCTACGACGGGATT
# B7: AUGAAAA (DNA:RNA)
# RNA: B1 RNA with U25A, A27G, C28A, C29A, U30A, G31A
# DNA 1: CAATCTGAATTCCGGTCTCCC
# DNA 2: TGGTGGCTACGACGGGATT
# B8: UUCUUGU (DNA:RNA)
# RNA: B4 RNA with C25U, G26U, C31U
# DNA 1: CAATCTGAATTCCGGTCTCCC
# DNA 2: TGGTGGCTACGACGGGATT
# B9: GUAUCCG (DNA:RNA)
# RNA: B1 RNA with U25G, C28U, U30C
# DNA 1: CAATCTGAATTCCGGTCTCCC
# DNA 2: TGGTGGCTACGACGGGATT
# B10: ACUCUUA (DNA:RNA)
# RNA: B1 RNA with U25A, U26C, A27U, C29U, G31A
# DNA 1: CAATCTGAATTCCGGTCTCCC
# DNA 2: TGGTGGCTACGACGGGATT
# B11: CAACUAA (DNA:RNA)
# RNA: B4 RNA with G26A, C27A, U28C, G30A, C31A
# DNA 1: CAATCTGAATTCCGGTCTCCC
# DNA 2: TGGTGGCTACGACGGGATT
# B12: AGACGCA (DNA:RNA)
# RNA: B1 RNA with U25A, U26G, C29G, U30C, G31A
# DNA 1: CAATCTGAATTCCGGTCTCCC
# DNA 2: TGGTGGCTACGACGGGATT
# B13: GAUGCUA (DNA:RNA)
# RNA: B1 RNA with U25G, U26A, A27U, C28G, G31A
# DNA 1: CAATCTGAATTCCGGTCTCCC
# DNA 2: TGGTGGCTACGACGGGATT
# B14: GCUAAUA (DNA:RNA)
# RNA: B1 RNA with U25G, U26C, A27U, C28A, C29A, G31A
# DNA 1: CAATCTGAATTCCGGTCTCCC
# DNA 2: TGGTGGCTACGACGGGATT
# B15: AAUUAUA (DNA:RNA)
# RNA: B4 RNA with C25A, G26A, C27U, U29A, G30U, C31A
# DNA 1: CAATCTGAATTCCGGTCTCCC
# DNA 2: TGGTGGCTACGACGGGATT
# B16: AGGGGUC (DNA:RNA)
# RNA: B4 RNA with C25A, C27G, U28G, U29G, G30U
# DNA 1: CAATCTGAATTCCGGTCTCCC
# DNA 2: TGGTGGCTACGACGGGATT
# B17: AAACCCG (DNA:RNA)
# RNA: B1 RNA with U25A, U26A, U30C
# DNA 1: CAATCTGAATTCCGGTCTCCC
# DNA 2: TGGTGGCTACGACGGGATT
# B18: CACAUGG (DNA:RNA)
# RNA: B4 RNA with G26A, U28A, C31G
# DNA 1: CAATCTGAATTCCGGTCTCCC
# DNA 2: TGGTGGCTACGACGGGATT
# B19: CAUGGAA (DNA:RNA)
# RNA: B4 RNA with G26A, C27U, U28G, U29G, G30A, C31A
# DNA 1: CAATCTGAATTCCGGTCTCCC
# DNA 2: TGGTGGCTACGACGGGATT
# B20: GGGGUAU (DNA:RNA)
# RNA: B4 RNA with C25G, C27G, U28G, G30A, C31U
# DNA 1: CAATCTGAATTCCGGTCTCCC
# DNA 2: TGGTGGCTACGACGGGATT
# B21: CAUUUUC (DNA:RNA)
# RNA: B4 RNA with G26A, C27U, G30U
# DNA 1: CAATCTGAATTCCGGTCTCCC
# DNA 2: TGGTGGCTACGACGGGATT
# B22: GUUCACG (DNA:RNA)
# RNA: B1 RNA with U25G, A27U, C29A, U30C
# DNA 1: CAATCTGAATTCCGGTCTCCC
# DNA 2: TGGTGGCTACGACGGGATT
# B23: ACGGUGC (DNA:RNA)
# RNA: B4 RNA with C25A, G26C, C27G, U28G
# DNA 1: CAATCTGAATTCCGGTCTCCC
# DNA 2: TGGTGGCTACGACGGGATT
# B24: GCGGCGU (DNA:RNA)
# RNA: B4 RNA with C25G, G26C, C27G, U28G, U29C, C31U
# DNA 1: CAATCTGAATTCCGGTCTCCC
# DNA 2: TGGTGGCTACGACGGGATT
# B25: CCGGGGA (DNA:RNA)
# RNA: B4 RNA with G26C, C27G, U28G, U29G, C31A
# DNA 1: CAATCTGAATTCCGGTCTCCC
# DNA 2: TGGTGGCTACGACGGGATT
# B26: GAUGUUU (DNA:RNA)
# RNA: B4 RNA with C25G, G26A, C27U, U28G, G30U, C31U
# DNA 1: CAATCTGAATTCCGGTCTCCC
# DNA 2: TGGTGGCTACGACGGGATT
# B27: CUUCCAU (DNA:RNA)
# RNA: B1 RNA with U25C, A27U, U30A, G31U
# DNA 1: CAATCTGAATTCCGGTCTCCC
# DNA 2: TGGTGGCTACGACGGGATT
# B28: GCGACUG (DNA:RNA)
# RNA: B1 RNA with U25G, U26C, A27G, C28A
# DNA 1: CAATCTGAATTCCGGTCTCCC
# DNA 2: TGGTGGCTACGACGGGATT
# B29: GGCGAAC (DNA:RNA)
# RNA: B4 RNA with C25G, U28G, U29A, G30A
# DNA 1: CAATCTGAATTCCGGTCTCCC
# DNA 2: TGGTGGCTACGACGGGATT
# B30: UUGACAA (DNA:RNA)
# RNA: B1 RNA with A27G, C28A, U30A, G31A
# DNA 1: CAATCTGAATTCCGGTCTCCC
# DNA 2: TGGTGGCTACGACGGGATT
# B31: CAGACCU (DNA:RNA)
# RNA: B4 RNA with G26A, C27G, U28A, U29C, G30C, C31U
# DNA 1: CAATCTGAATTCCGGTCTCCC
# DNA 2: TGGTGGCTACGACGGGATT
# Target: T1, RBFOX1 RRM RbFoxmut (Fox-RRM*)
# Test: EMSA; HiTS-Eq, 1 nM pool, 10 min; buffer printed only for the single-RNA assays: 10 mM Tris pH 7.5, 150 mM NaCl, 3.4 mM EDTA, 0.001% NP-40, 30 C
# Details: tags: His6 N-terminal (pET28a); label: 5' 32P
# Outline: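 A pool of RNA with 7 randomized nucleotides, 5′-radiolabelled and with DNA-annealed flanks, was equilibrated at 1 nM for 10 min in 50 µL with purified RbFox RRM, wild type or mutant, across increasing protein concentrations. Free RNA was separated by 8% native PAGE, excised, reverse-transcribed, barcoded by PCR and sequenced. Relative association constants were obtained from read-count changes of each RNA species versus the control reaction and normalised to the cognate motif.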
row,Binder,binding signal
1,B1,0.106 KA relative to UGCAUGU
2,B2,0.0492 KA relative to UGCAUGU
3,B3,0.101 KA relative to UGCAUGU
4,B4,0.162 KA relative to UGCAUGU
5,B5,1.2 KA relative to UGCAUGU
6,B6,0.0848 KA relative to UGCAUGU
7,B7,0.116 KA relative to UGCAUGU
8,B8,0.158 KA relative to UGCAUGU
9,B9,0.201 KA relative to UGCAUGU
10,B10,0.0894 KA relative to UGCAUGU
11,B11,0.117 KA relative to UGCAUGU
12,B12,0.108 KA relative to UGCAUGU
13,B13,0.111 KA relative to UGCAUGU
14,B14,0.102 KA relative to UGCAUGU
15,B15,0.108 KA relative to UGCAUGU
16,B16,0.163 KA relative to UGCAUGU

row,Binder,binding signal
1,B17,0.101 KA relative to UGCAUGU
2,B18,0.0938 KA relative to UGCAUGU
3,B19,0.103 KA relative to UGCAUGU
4,B20,0.122 KA relative to UGCAUGU
5,B21,0.0854 KA relative to UGCAUGU
6,B22,0.0981 KA relative to UGCAUGU
7,B23,0.128 KA relative to UGCAUGU
8,B24,0.141 KA relative to UGCAUGU
9,B25,0.0915 KA relative to UGCAUGU
10,B26,0.125 KA relative to UGCAUGU
11,B27,0.0804 KA relative to UGCAUGU
12,B28,0.177 KA relative to UGCAUGU
13,B29,0.0792 KA relative to UGCAUGU
14,B30,0.0346 KA relative to UGCAUGU
15,B31,0.0546 KA relative to UGCAUGU
